In all, about 46,000 compounds went through this assay and about 60 (0.1%) were called active. About 3% were inconclusive and are not listed. Calls follow the shape of the dose curve; as a rule, active = well fitted inhibition curve with a large enough effect; inconclusive = small, poorly fitted or top-dose-only effect; inactive = no such curve, though single readings can be large or run the other way. This is one part of the list.

The test is described as follows: Primary qHTS assay for Inhibitors of ovarian cancer metastasis using an organotypic tumor microenvironment (TME) model. Also: nearly all actives have a fitted effect of over 65% in size.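 As to activity change, negative = inhibition: plate controls were DMSO wells for no effect and tomatine positive control wells for full effect.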 As to conditions: SKOV3ip1-GFP adhesion/invasion on 3D omental model, fluorescence; series mostly up to 45.8 µM; activity change, negative = inhibition: at the top concentration. Summed up: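 Primary human omental fibroblast/mesothelial 3D culture pre-formed 48 h. SKOV3ip1-GFP cells added with compounds (0.36-46 umol/L), incubated 2 h RT/16 h 37 C, fixed; GFP cells quantified at 488/509 nm.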
On the technique in general: qHTS replaces the single test concentration by a dilution series.
Turning to `COc1ccccc1NC(=O)CN(c1ccc(C(C)C)cc1)S(=O)(=O)c1c(C)noc1C`, the “activity change, negative = inhibition” value is inactive: -0.395%. On to `Cc1ccc(-n2nnnc2CNC(=O)c2cc(C(F)(F)F)cc(C(F)(F)F)c2)cc1C`, for which the result was inactive. Turning to `COc1cccc(CNC(=O)COc2cc(=O)n(C)c3ccccc23)c1`, the compound was called inactive. `O=C(Nc1cccc(C(F)(F)F)c1)c1cc(CN2CCOCC2)on1`: the “activity change, negative = inhibition” value was inactive: -13.9%. Turning to `COc1ccccc1S(=O)(=O)Cc1ccc(C(=O)NCc2ccc(Cl)cc2)o1`, the “activity change, negative = inhibition” value was inactive: 1.25%.

With `Cc1ccc(N2CCN(S(=O)(=O)c3cccc4ccccc34)CC2)cc1Cl`, the “activity change, negative = inhibition” value is inactive: -13.8%. Consider `COc1ccc(S(=O)(=O)Nc2ccc(-c3cn4c(C)csc4n3)cc2)cc1`, for which the call was inactive.

In the case of `COc1ccc(-n2ncc3c(NC4CCCC4)ncnc32)cc1`, the “activity change, negative = inhibition” value was inactive: -0.163%. On the same count and under the same terms, for `CCN(CCCNC(=O)c1nn(-c2ccc(OC)cc2)c(=O)c2c1c1ccccc1n2C)c1ccccc1` the value was inactive: 3.5%. In the case of `COC(=O)c1ccc(NC(=O)CCn2cnnn2)cc1`, the “activity change, negative = inhibition” value is inactive: 5.6%. As to `O=C(Nc1ccccc1F)c1ccc2c(Cl)c3c(nc2c1)CCC3`, the “activity change, negative = inhibition” value was inactive: -16.1%.

Regarding `CCCNc1ccc(-c2nc(-c3ccccn3)no2)cc1[N+](=O)[O-]`, the “activity change, negative = inhibition” value is inactive: -3.65%. Take `Cc1c(Cl)cccc1-n1ncc(C(=O)Nc2ccc(Br)cc2F)c1C1CCNCC1`: the compound was called inactive.

As for `CCCCNC(=O)c1ccc2c(c1)ncn2-c1cc(OC)ccc1OC`, the “activity change, negative = inhibition” value was inactive: -12.3%. Same read-out and setting: next, `CC(=O)c1c(C)oc2c1cc(NS(=O)(=O)c1ccc(Br)cc1)c1ccccc12`: inactive: -0.0923%. For the compound `COC(=O)c1ccc(NC(=O)c2nc(-c3ccc(Cl)cc3)n3c2CCCCC3)cc1`, the “activity change, negative = inhibition” value is inactive: -17.1%.

Regarding `COc1ccccc1NC(=O)C1=C(C)Nc2nnnn2C1c1ccc(C(F)(F)F)cc1` (stereo not drawn), the result was inactive. Same read-out and setting: for `CCc1cccc(NC(=O)CCNS(=O)(=O)c2cccc3nonc23)c1` the value was “inactive”.

Take `CCOC(=O)N1CCc2c(sc3c2c(=O)n(CCc2ccccc2)c(=O)n3CC(=O)Nc2ccc(C)cc2)C1`: the “activity change, negative = inhibition” value was inactive: 0.43%.

On to `O=C(CSc1nccn1-c1ccc(Cl)cc1)Nc1ccc(Cl)c(Cl)c1`, for which the “activity change, negative = inhibition” value is inactive: 1.23%. `COc1cc(NC(=O)N2c3ccccc3Sc3ccccc32)cc(OC)c1`: the “activity change, negative = inhibition” value is inactive: 2.62%. In the case of `O=C(NCc1cccc(Br)c1)c1cnn(-c2ccc(F)cc2)c1-n1cccc1`, the compound was classed as inactive.

With `CCC(C)NC(=O)Cn1c(=O)n(CCCCCC(=O)NCc2ccccc2Cl)c(=O)c2sccc21` (stereo not drawn), the “activity change, negative = inhibition” value is inactive: 8.79%. As to `CC(=O)c1ccc(NC(=O)c2cc(-c3ccc(C)s3)nc3ccccc23)cc1`, the result was inactive.

Turning to `O=C1C(c2ccc(F)cc2)N(CCc2ccc(Cl)cc2)C(=O)CN1C1CCCCCC1` (stereo not drawn), the “activity change, negative = inhibition” value was inactive: -8.16%. Turning to `CC(C)(C)CC(=O)NCC(c1ccc2c(c1)OCO2)N1CCN(c2ccccc2)CC1` (stereo not drawn), the “activity change, negative = inhibition” value is inactive: 1.13%. With `Cc1cccc(N2CCN(C(=O)CN3C(=O)CSc4c3c(C)nn4-c3ccccc3)CC2)c1C`, the result was inactive. Regarding `CCCOC(=O)c1c(NC(=O)C(C)Sc2nc(-c3ccccc3)cc(C(F)(F)F)n2)sc(C(=O)N(C)C)c1C` (stereo not drawn), the “activity change, negative = inhibition” value is inactive: 12.4%.

Take `CCOC(=O)c1ccc(NC(=O)CSc2ccc3ccccc3n2)cc1`: the “activity change, negative = inhibition” value was inactive: -1.57%. `CCCN(CCC)CCCNC(=O)c1cc2c(-c3ccc(OC)c(OC)c3)nn(C)c2s1`: the “activity change, negative = inhibition” value was inactive: 10.8%.

Turning to `CCOc1ccc(N2CC(NC(=O)c3cccs3)CC2=O)cc1` (stereo not drawn), the compound was called inactive. Take `C=CCNC1=C2C[C@@H](C)C[C@H](OC)[C@@H](O)[C@@H](C)C=C(C)[C@H](OC(N)=O)[C@@H](OC)C=CC=C(C)C(=O)NC(=CC1=O)C2=O`: the “activity change, negative = inhibition” value is inactive: 11.5%. Still for that read-out and setting: next, `COc1cc(NC(=O)CCc2c(C)nn(-c3ccc4nnc(C)n4n3)c2C)cc(OC)c1OC`: inactive: -4.55%. For `CCc1ccc(NC(=O)[C@H](Cc2ccccc2)N2Cc3ccccc3C2=O)cc1`, the outcome was inactive. For the compound `CCOc1ccc(S(=O)(=O)c2c(C(=O)c3ccc(CC)cc3)cnc3ccc(C)cc23)cc1`, the “activity change, negative = inhibition” value was inactive: 1.27%. `O=C(CSc1nc2c([nH]c3ccccc32)c(=O)n1-c1ccccc1)N1CCc2ccccc21`: the compound was classed as inactive. As to `O=C1CC(c2nc(-c3ccc(Cl)cc3)no2)CN1c1ccc2c(c1)OCCO2` (stereo not drawn), the “activity change, negative = inhibition” value is inactive: -1.32%. `COc1ccc(C2C(=O)N(C3CCCCCC3)CC(=O)N2Cc2ccc(C)cc2)cc1` (stereo not drawn): the result was inactive. Take `Cc1csc(NC(=O)c2sc3nc4c(c(C(F)(F)F)c3c2N)CCC4)n1`: the “activity change, negative = inhibition” value was inactive: 19.1%.

In the case of `Cc1ccc(S(=O)(=O)n2nc(-c3ccccc3)nc2NCc2ccc(Cl)cc2)cc1`, the “activity change, negative = inhibition” value was inactive: 22.3%. With `COc1cc(OC)cc(C(=O)Nc2cc3c(cc2N2CCCC2)n(C)c(=O)c(=O)n3C)c1`, the “activity change, negative = inhibition” value is inactive: 0.732%. On to `Cc1ccc(SCC(=O)Nc2ccc3oc(-c4ccccc4C)nc3c2)cc1`, for which the “activity change, negative = inhibition” value was inactive: -6.7%.

As to `COc1ccc(-n2c(=O)c3ccccc3n(CC(=O)Nc3ccccc3OC)c2=O)cc1`, the compound was classed as inactive. Consider `CSc1ccc(CCNC(=O)CCn2c(=O)c3cccn3c3ccc(F)cc32)cc1`, for which the result was inactive. Same read-out and setting: for `CCOC(=O)c1c(NC(=O)c2cc3ccccc3c(=O)o2)sc2c1CCC(C)C2` (stereo not drawn) the value was “inactive”. For `Cc1ccc(CNC(=O)c2cc(C)nc3c2c(C)nn3-c2ccc(C)cc2)cc1`, the “activity change, negative = inhibition” value is inactive: 0.363%.

Consider `CCN(CC)CCCCNc1ncc2cc(-c3cc(OC)cc(OC)c3)c(NC(=O)NC(C)(C)C)nc2n1`, for which the “activity change, negative = inhibition” value was inactive: -7.03%. As to `CC(=O)c1ccc(NC(=O)c2cnn(-c3cccc(F)c3)c2-n2cccc2)cc1`, the “activity change, negative = inhibition” value is inactive: 1.11%.

Values taken from PubChem BioAssay AID1963576 (National Center for Advancing Translational Sciences (NCATS), 2024).
